# Measurements reported in ChEMBL document CHEMBL1157539, “Thousands of chemical starting points for antimalarial lead identification” (Nature, 2010).
# Whole data set: some 13,000 compounds, median “IFI” near 4, cut for the highest 2% near 17. This is one part of the list.
# Experiment: GSK_TCMDC: Inhibition Frequency Index (IFI). The number of non-kinase HTS assays where a compound showed > 50 % inhibition, expressed as a percentage of the number of such assays in which the compound was tested (-0 is zero)
# Format: functional
row,Compound,IFI
1,CC(=O)c1ccc(N2CCN(C(=O)Nc3ccc(Cl)cc3)CC2)cc1,0%
2,COc1ccc2c(c1C1CCN(CCCCNC(=O)c3ccc(NC(=O)c4ccc(Cl)cc4)cc3)CC1)CCCC2,4.44%
3,Cc1cccc2nc(-c3ccc(-c4cccc(NC(=O)Nc5ccccc5)c4)cc3)[nH]c12,5%
4,Cc1ccc(CNC(=O)[C@H](Cc2ccccc2)Nc2cc(C)nc(Nc3ccccc3)n2)cc1,12.8%
5,Cc1n[nH]c2ccc(-c3cc(OC[C@@H](N)Cc4ccccc4)cnc3-c3ccccc3OCc3cccc(F)c3)cc12,7.62%
6,O=S(=O)(c1cccc(F)c1)c1ccc(Nc2ncnc3cc(Br)sc23)cc1Cl,8.09%
7,COc1ccc(-c2ccccc2CNC2Cc3ccccc3C2)cc1S(=O)(=O)NCCN1CCCC1,2.8%
8,Cc1cc(C(=O)NC2CCN(Cc3ccccc3)CC2)ccc1-c1nc2ccc(C(F)(F)F)cc2[nH]1,0.74%
9,COCCOc1ccc(C(F)(F)F)cc1NC(=O)Cc1c(F)cccc1Cl,-0%
10,O=C(NC1CCC1)C1CCN(C(c2ccc(Cl)cc2)c2ccc(Cl)cc2)CC1,3.42%
11,COc1cc(C(=O)N2CCOC(CCN3CCC(c4ccc(Cl)cc4)CC3)(c3ccc(Cl)c(Cl)c3)C2)cc(OC)c1OC (stereo not given),9.42%
12,CCCCNC(=O)c1[nH]c2c(NC(=O)COc3ccccc3)cccc2c1-c1cccc(NC(=O)C(N)CO)c1 (stereo not given),1.46%
13,CCC(C)(C)c1ccc(N2C(N)=NC(N)=NC2(C)C)cc1,3.68%
14,NC1(C(=O)O)Cc2ccc(Cl)cc2C1 (stereo not given),0%
15,CCOC(=O)NCC(=O)Nc1cccc(-c2cccc(-c3nc4cc(C(F)(F)F)ccc4[nH]3)c2)c1,11.2%
16,Cc1cccc2nc(-c3cccc(-c4cccc(CNCc5ccc(S(C)(=O)=O)cc5)c4)c3)[nH]c12,8.65%
17,Cc1cccc2nc(-c3ccc(-c4ccc(CN5CCN(C6CCN(C)CC6)CC5)cc4)s3)[nH]c12,12.5%
18,Cc1cc(N2CCCN(C)CC2)nc(Nc2ccc(Br)cc2)n1,1.19%
19,Oc1ccc2[nH]c(-c3cccs3)nc2c1CN1CCC(N2CCCC2)CC1,0.85%
20,COc1cc(Nc2nccc(-c3c(-c4cccc(NC(=O)c5c(F)cccc5F)c4)nn4ccccc34)n2)cc(OC)c1OC,10.6%
21,COc1ccc(C(=O)C2CCN(CCCCNC(=O)c3ccc(NC(=O)c4ccc(Cl)cc4)cc3)CC2)c(OC)c1,8.33%
22,Cn1nccc1C(=O)NCCNCc1cccc(-c2ccc(-c3nc4ccccc4[nH]3)s2)c1,5%
23,COCCNCc1cccc(-c2ccc3c(Nc4cc(O)c(Cl)cc4F)ccnc3c2)c1,5.26%
24,S=C(NCCN1CCOCC1)Nc1ccccc1,-0%
25,Cc1nc(Nc2cc(Cl)ccc2O)nc(Nc2cc(Cl)ccc2O)c1[N+](=O)[O-],0.72%
26,Cc1cccc2nc(-c3cccc(-c4ccc(NC(=O)Cc5ccc[n+]([O-])c5)cc4)c3)[nH]c12,1.77%
27,CC(C)Oc1ccccc1-c1csc(C(=O)NCC2CCN(Cc3ccc(C(C)(C)C)cc3)C2)c1 (stereo not given),16%
28,CN(C)S(=O)(=O)c1ccc(N2C(=O)C3C(C2=O)C2(c4ccccc4)C(=O)C3(c3ccccc3)C(c3ccccc3)=C2c2ccccc2)cc1 (stereo not given),0.72%

row,Compound,IFI
1,CCC(CC)(Cc1ccccc1)NC(=O)[C@H](CC(C)C)Nc1ccc(C#N)c2ccccc12,3.92%
2,CCCC(C)N(Cc1ccc(C(C)(C)C)cc1)C(=O)c1cccc(OC)c1 (stereo not given),3.68%
3,CCS(=O)(=O)c1ccc(-c2cnc3[nH]cc(-c4ccc(N)cc4)c3c2)cc1,7.69%
4,COc1ccc(CNC(=O)Nc2cc3cc(-c4ccc(CN5CCCC5)cc4)ccc3n3c(C)nnc23)cc1,13.5%
5,COc1ccc(C2(CNCC(O)c3cccc([N+](=O)[O-])c3)CCCCC2)cc1OC (stereo not given),0.73%
6,COc1ccc2nccc([C@@H](O)CN3CCC(NC(=O)[C@@H]4Cc5ccccc5CN4C(=O)OC(C)(C)C)CC3)c2c1,-0%
7,CCOC(=O)c1ccc(-c2cnc(N)c(-c3nc4cccc(C)c4[nH]3)c2)cc1,0.69%
8,CCc1ccc(CN2CCC(NC(=O)c3ccc(-c4ccccc4F)s3)CC2)cc1,10.3%
9,O=C(NCCCN1CCOCC1)c1ccc(-c2cccc(NC(=O)c3ccc(Cl)c(Cl)c3)c2)cc1,11.6%
10,COc1cc(NC(=O)N2CCc3cc(OC)c(OCCN4CCCCC4)cc32)cc(C(F)(F)F)c1,1.49%
11,CCN(C1CCCCC1)S(=O)(=O)c1ccc(OC)c(N2CCN(C(=O)C(Cl)(Cl)Cl)CC2)c1,5.83%
12,CCCCN(CCCC)CCCN(CCCN(CCCC)CCCC)c1cc(C)nc(Nc2ccc(Cl)cc2)n1,9.38%
13,Cc1cc2c(cc1C(F)(F)F)N(C(=O)Nc1ccc(C(=O)NCCN3CCCC3)cc1)CC2,2.9%
14,O=C(/C=C/c1ccc(Cl)c(Cl)c1)NCCCCCN1CCC(NS(=O)(=O)c2cc(Cl)cc(Cl)c2)CC1,7.94%
15,Cc1cc(N2CCN(CC3CCN(C)CC3)CC2)nc(Nc2ccc(Br)cc2)n1,5.95%
16,O=S(=O)(NC1=NCCC1)c1cccc(Nc2nc(C(F)(F)F)nc3ccccc23)c1,-0%
17,O=C(Nc1cccc(C(F)(F)F)c1)Nc1nc2ccc([N+](=O)[O-])cc2s1,14%
18,Cc1ccc(CCNCC(O)c2cccc(C(F)(F)F)c2)cc1 (stereo not given),3.62%
19,O=C(N[C@H]1CCN(Cc2ccc(OCCN3CCNCC3)c(Br)c2)C1)c1ccc(Cl)c(Cl)c1,6.9%
20,NC(=O)c1ccc(NCC(=O)Nc2cccc(-c3cccc(-c4nc5cc(C(F)(F)F)ccc5[nH]4)c3)c2)cc1,10.3%
21,CCN(CC)CCCC(C)Nc1c(-c2ccc(OC)cc2)cnc2ccccc12 (stereo not given),-0%
22,ON=C1CCc2cc(-c3nc(-c4ccc(OCCN5CCCCC5)cc4)[nH]c3-c3ccncc3)ccc21,6.47%
23,Cc1cc(N2CCCC2)nc(Nc2ccc(NC(=O)c3ccco3)cc2)n1,9.62%
24,O=C(NCCc1ccc(Cl)c(Cl)c1)[C@@H]1CCCN1C(=O)c1ccc(O)c(-c2ccc(Cl)c(Cl)c2)c1,4.44%
25,NC1CCN(Cc2cccc(-c3cccc(-c4nc5ccccc5[nH]4)c3)c2)C1 (stereo not given),2.78%
26,Cc1cccc2nc(-c3ccc(-c4ccc(CN5CCCC(N)C5)cc4)cc3)[nH]c12 (stereo not given),4.23%
27,NC1=NC(CCc2ccccc2)N(c2ccc(Cl)cc2)C(N)=N1 (stereo not given),2.21%
